This is an account of results in the supplement of paper PMC3334620.

Over roughly 33,000 sequences, “E-score (-0.5 to 0.5)” has its median near -0.016; the highest 2% begin near 0.32. The list shows a part of the results.

This assay has as its target T1, Stp1 (UniProt B3LFK1).
T1 sequence: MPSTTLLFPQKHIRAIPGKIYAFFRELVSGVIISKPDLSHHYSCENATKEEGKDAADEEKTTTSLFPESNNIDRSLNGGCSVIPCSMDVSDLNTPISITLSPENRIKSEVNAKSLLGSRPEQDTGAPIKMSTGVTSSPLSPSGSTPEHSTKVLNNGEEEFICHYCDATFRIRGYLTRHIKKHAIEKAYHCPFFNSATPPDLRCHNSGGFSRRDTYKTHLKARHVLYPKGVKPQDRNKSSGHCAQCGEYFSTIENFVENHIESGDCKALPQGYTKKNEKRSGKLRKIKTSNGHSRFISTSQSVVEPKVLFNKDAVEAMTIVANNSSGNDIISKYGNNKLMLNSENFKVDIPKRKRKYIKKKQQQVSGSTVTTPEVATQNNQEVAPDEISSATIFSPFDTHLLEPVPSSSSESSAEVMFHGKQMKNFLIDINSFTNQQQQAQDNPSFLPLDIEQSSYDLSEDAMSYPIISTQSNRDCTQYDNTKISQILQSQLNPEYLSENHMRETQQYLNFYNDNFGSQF
The assay can be described thus: PBM E-score (8-mer binding enrichment) (E-score (-0.5 to 0.5)); higher = stronger / more preferred TF binding; most listed sequences are background and not binding sites. As to conditions: protein concentration: 200 nM; construct: GST-full length. The procedure, abridged: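 PURExpress in vitro transcription/translation supplied GST-tagged yeast transcription factors, either full-length or DNA-binding domain. Applied at about 100-200 nM to universal all-10-mer Agilent arrays double-stranded by primer extension, the bound protein was detected with fluorescent anti-GST. E-scores, modified Wilcoxon-Mann-Whitney statistics, were given by the Universal PBM Analysis Suite to ungapped eight-base words pooled with their reverse complements after masliner normalisation.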
In the case of ACATGACA, the “PBM E-score” value turned out to be 0.0011.

On to GTATCTTA, for which the “PBM E-score” value amounted to 0.218. On to CCAAATAA, for which the “PBM E-score” value amounted to 0.101. ATGGTATG: the “PBM E-score” value was -0.0816. ACCTAACC: the “PBM E-score” value was -0.199. Under CCAATCTC stands -0.0161; under AGGGGGAC, -0.386; under CCAGGTGA, -0.176.

With ACCGCTTC, the “PBM E-score” value is -0.116. Take TCAGCAGA: the “PBM E-score” value was -0.0689. Under AGTACACT stands -0.071; under GTTCCGAA, 0.0739; under TAGGGGGA, -0.373. Next, TTTCAAAA: 0.241; AACTGGTA: -0.105. Under ATTAACCA stands 0.0867. As for CCGAGCAG, the “PBM E-score” value turned out to be 0.0183.

With AACACCAG, the “PBM E-score” value was -0.309. Take AACGAGGT: the “PBM E-score” value is -0.111. As to GTGTTTTA, the “PBM E-score” value stood at 0.116. Under CCTCCGGA stands -0.321; under GGGCATGA, -0.0369; under CCCCGATC, -0.427. Next, ACGAGGCT: 0.323. As to CTAATGGA, the “PBM E-score” value is -0.0401. Under CTATATTC stands -0.141; under ACAGTAAG, 0.0834. ATCTCCAA: the “PBM E-score” value was -0.0663.

With CCGGAAGC, the “PBM E-score” value was 0.00357. Consider AGTCGCTG, for which the “PBM E-score” value is -0.0658. Under TAAGTGGA stands -0.0459; under ATTCAACC, -0.0803; under AGTTAAAT, 0.133. On to GTCAAGCA, for which the “PBM E-score” value is -0.2. Under CGGTCTCA stands -0.0356; under GTCCCTCA, -0.234; under TCGATGAA, 0.0501.

Consider ATTCTCTC, for which the “PBM E-score” value is -0.131. Under ATCATCAA stands 0.08; under GCTACAAC, -0.194. Consider TAGCGGGA, for which the “PBM E-score” value was -0.254. Next, AAGTGAGA: -0.156; TAACTGCA: -0.00649. Next, CTACAATA: 0.181. Under CGCTCGTA stands 0.108. In the case of ACGTGTCA, the “PBM E-score” value is -0.0154. Next, ACAGTTCT: -0.0254; CGAGCAAG: -0.213. Take TCTGCGAA: the “PBM E-score” value is -0.129. As for GCGGTGAC, the “PBM E-score” value was -0.0836. Under TAAGGCCA stands 0.0323; under CTACGCGC, 0.117; under GCGATTGA, 0.03.

As for AACAGAAG, the “PBM E-score” value was found to be 0.132. Under CAGCTTTC stands -0.1. Under GCGGGGCA stands 0.202; under CCGTGTAA, 0.25.

For the sequence AAGGCACC, the “PBM E-score” value was 0.402. Under CTACTCAA stands 0.16.

Turning to GACTCAGC, the “PBM E-score” value is -0.128. Under ACTCAGTA stands 0.0277; under CAACGCCG, 0.391. Next, CCACAAGC: -0.13; ACTCCGAG: -0.12; CGCCGTAC: 0.487. As to CTGCTCTC, the “PBM E-score” value was -0.234. For the sequence GCATCTAC, the “PBM E-score” value was determined as 0.0127.

As for GACGACCC, the “PBM E-score” value was -0.149. For the sequence AACTCCCT, the “PBM E-score” value is -0.221. Next, CATTTATC: 0.153; GACAGATC: 0.0305; ACAAAACC: 0.0627. As to GTTTTATA, the “PBM E-score” value is 0.226. Next, ACGATTCT: 0.0374; ACTCAATG: 0.0341; ACCTCGGG: -0.201. As to GAGGGTAA, the “PBM E-score” value was -0.0792. With CGGGGTAC, the “PBM E-score” value was -0.228. Under CAGGTCGC stands -0.161; under ACTGTAGA, 0.0582; under AGGGTATA, -0.0768.

Turning to ATGGGTTC, the “PBM E-score” value is -0.355. On to TCAAATAA, for which the “PBM E-score” value is 0.171. Turning to ATTTCTCA, the “PBM E-score” value was 0.114.

On to AATGTCGC, for which the “PBM E-score” value is -0.0462. Next, CTCCGGCA: 0.104.
